Source: PubChem BioAssay AID588855 (National Center for Advancing Translational Sciences (NCATS), 2011)
Among all 410,000 compounds or so, about 5,000 (1.2%) were called active. The shares of active, inactive and inconclusive entries below differ from those in the screen. Calls follow the shape of the dose curve; as a rule, active = well fitted inhibition curve with a large enough effect; inconclusive = small, poorly fitted or top-dose-only effect; inactive = no such curve, though single readings can be large or run the other way. Potencies beside an inconclusive call are fits to weak or partial responses and may not hold up.

Assay: qHTS for Inhibitors of TGF-b; also: nearly all actives have a fitted effect of over 65% in size
Details: HepG2 CAGA-GFP TGF-b/SMAD3 reporter, GFP fluorescence, 18 h, TGF-beta stimulated, 500 pg/mL final; series mostly up to 46.1 µM; activity, negative = inhibition: at the top concentration
How it was run: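 Smad-responsive CAGA-GFP expression was quantified in HEPG2 cells exposed to compounds and 500 pg/mL final TGF-beta for 18 h at 37 degrees C; unstimulated wells defined full inhibition.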
% is scaled to controls: 0 for no effect and ±100 for the full control effect; potency is read from the fitted curve at half-maximal effect; tags tell the direction and shape of the fitted curve.

Compound	Potency	activity, negative = inhibition
COC(=O)[C@@]1(Cc2ccc(F)cc2)[C@H]2c3cc(C(=O)N(C)C)n(Cc4nc5ccccc5[nH]4)c3C[C@H]2CN1C(=O)c1ccccc1	inconclusive: 35.5 µM [inhibitor, single point]	–
CC(Sc1nc(N)cc(=O)[nH]1)C(=O)Nc1sc2c(c1C#N)CCCC2 (stereo not drawn)	inconclusive: 22.4 µM [inhibitor, single point]	–
Cc1ccc(N=Cc2c(C)[nH]n(-c3nc4ccccc4[nH]3)c2=O)cc1	–	inactive: -6.5%
CC(=O)N1c2ccccc2C(=O)C1N1CCN(c2ccccc2F)CC1 (stereo not drawn)	–	inactive: -18.2%
CCOC(=O)c1cnc2cc(C(F)(F)F)ccc2c1Nc1cc(C)ccc1OC	inconclusive: 0.112 µM [inhibitor, full curve, poor fit]	–
Cc1ccc(C(=O)C(OC(=O)CN2C(=O)c3ccccc3C2=O)c2ccccc2)cc1C (stereo not drawn)	inconclusive: 35.5 µM [inhibitor, single point]	–
CN(CCc1ccccn1)C(=O)CCC1CCCN(C(=O)c2n[nH]c3c2CCCC3)C1 (stereo not drawn)	–	inactive: -1.82%
CCN(CC)S(=O)(=O)c1ccc(Cl)c(NC(=S)NC(=O)C2CCCC2)c1	inconclusive: 35.5 µM [inhibitor, single point]	–
CCCn1c(NC(=O)c2ccccc2)nc2ccccc21	inconclusive: 35.5 µM [inhibitor, single point]	–
O=C(Nc1nnc(-c2ccncc2)o1)c1ccccc1	inconclusive: 15.8 µM [inhibitor, single point]	–
Cc1ccccc1C(=O)Oc1cccc(Nc2ncnc3ccccc23)c1	–	inactive: -11.1%
C=CCn1c(=O)c2ccccc2n2c(SCC(=O)NCc3cccs3)nnc12	inconclusive: 0.199 µM [inhibitor, full curve, poor fit]	–
CSc1ccc(NC(=O)C2(C)CCN2C(=O)Cc2ccc(C(C)(C)C)cc2)cc1 (stereo not drawn)	inconclusive: 28.2 µM [inhibitor, single point]	–
O=C(COC(=O)/C=C/c1cccc(F)c1)NNC(=O)c1ccccc1	–	inactive: 9.33%
Cc1nn(-c2ccccc2)nc1CNC(=O)CC(C)(C)C	inconclusive: 20 µM [inhibitor, partial curve, poor fit]	–
Cc1nn(Cc2c(Cl)cccc2Cl)c(C)c1NC(=O)Cn1nc([N+](=O)[O-])c(Cl)c1C	inconclusive: 3.98 µM [inhibitor, single point]	–
Cc1c(C)c2cc(Cl)c(OCC(=O)Nc3ccccn3)cc2oc1=O	–	inactive: -6.11%
C[C@@H]1CC=C[C@H]2[C@H]1C(=O)N(Cc1ccccc1)[C@H]2c1ccc2ccccc2c1Br	inconclusive: 14.1 µM [inhibitor, single point]	–
CCCN1C2CCCC1CC(NC(=O)c1ccccc1Br)C2 (stereo not drawn)	inconclusive: 1.26 µM [inhibitor, partial curve, poor fit]	–
Cc1ccccc1-c1nc(CN2CCC(C(=O)NC3CCN(Cc4ccccc4)CC3)CC2)c(C)o1	–	inactive: -4.23%
Cc1cc(C)c(NC(=O)CSc2nncn2-c2cccnc2)c(C)c1	inconclusive: 35.5 µM [inhibitor, single point]	–

Compound	Potency	activity, negative = inhibition
COc1ccc(C2NC(=O)c3sc(=S)n(-c4ccccc4)c3N2)cc1 (stereo not drawn)	inconclusive: 35.5 µM [inhibitor, single point]	–
CSc1cccc(NC(=O)c2cnn(-c3ccc(F)cc3)c2-n2cccc2)c1	–	inactive: 8.62%
O=C(COc1ccc(F)cc1Br)Nc1ccccc1N1CCOCC1	inconclusive: 20 µM [inhibitor, single point]	–
Cc1ccc(S(=O)(=O)N2CCN(C(=O)CCC(=O)NCc3ccc(F)cc3)CC2)cc1	inconclusive: 8.91 µM [inhibitor, partial curve, poor fit]	–
CCC(C)Nc1nc(N)c([N+](=O)[O-])c(Nc2cc(OC)ccc2OC)n1 (stereo not drawn)	inconclusive: 17.8 µM [inhibitor, single point]	–
COc1ccc(Nc2nc(C(=O)N3CCc4ccccc4C3)cs2)cc1	inconclusive: 35.5 µM [inhibitor, single point]	–
O=C(c1ccc2c(c1)N(Cc1ccccc1)C(=O)c1ccccc1S2)N1CCCC1	inconclusive: 11.2 µM [inhibitor, partial curve, poor fit]	–
O=C1NC(=S)SC1=Cc1ccc(F)cc1	inconclusive: 25.1 µM [inhibitor, single point]	–
Cc1ccc(Cn2c(SCc3ccc(C(=O)NC4CCCCC4)cc3)nc3ccncc32)cc1	inconclusive: 14.1 µM [inhibitor, partial curve, poor fit]	–
CSc1cccc(NC(=O)C2CCN(c3nc4ccccc4[nH]3)CC2)c1	inconclusive: 20 µM [inhibitor, single point]	–
COc1ccccc1Cn1c(-c2ccco2)nc2nc3ccccc3nc21	–	inactive: 0.231%
Cc1ccc(NS(=O)(=O)c2cc([N+](=O)[O-])ccc2NNC(=S)Nc2cc(C)ccc2C)c(C)c1	inconclusive: 2.82 µM [inhibitor, full curve, poor fit]	–
COc1cc(OC)c(/C=C/c2c3ccccc3cc[n+]2C)c(OC)c1	active: 10 µM	–
CCOC(=O)C1(CCOc2ccccc2)CCN(Cc2cccc3c2OCO3)CC1	inconclusive: 25.1 µM [inhibitor, single point]	–
COc1ccc(NC(=O)COCc2cc(-c3ccc4c(c3)OCO4)on2)cc1	–	inactive: -2.71%
COc1cccc(NS(=O)(=O)c2ccc3c(c2)n(C)c(=O)n3C)c1	–	inactive: -4.37%
CCCn1nc2cc(C(=O)NCC34CC5CC(CC(C5)C3)C4)ccc2c1OCC	inconclusive: 7.08 µM [inhibitor, partial curve]	–
COC(=O)C(CC(C)C)NC(=O)/C=C/c1ccc(Cl)cc1 (stereo not drawn)	–	inactive: 0.0107%
Cc1ccc(S(=O)(=O)N2C[C@H]3C(=O)C[C@@H](c4ccccc4)N(S(=O)(=O)c4cccc(C)c4)[C@H]3C[C@H]2c2ccccc2)cc1	inconclusive: 1.12 µM [inhibitor, partial curve, poor fit]	–
CN(C(=O)c1ccc2c(c1)N(Cc1cccc(Cl)c1)C(=O)c1ccccc1S2(=O)=O)C1CCCCC1	inconclusive: 10 µM [inhibitor, single point]	–
COc1ccc(NC(=O)N(C2CCCCC2)C2CCN(C(C)C)CC2)c(OC)c1	–	inactive: 0%

Compound	Potency	activity, negative = inhibition
CCOc1ccc(S(=O)(=O)Nc2cc(S(=O)(=O)N(CC)CC)ccc2N2CCCC2)cc1	inconclusive: 3.16 µM [inhibitor, single point]	–
COc1ccc(C(O)c2nc(-c3cccc(C(C)C)c3)cs2)cc1 (stereo not drawn)	inconclusive: 35.5 µM [inhibitor, single point]	–
CCCCCn1nc(C(=O)N2CCc3ccccc32)c2ccccc2c1=O	inconclusive: 35.5 µM [inhibitor, single point]	–
C#CCOCCOCCOCCNc1nc(N2CCN(C(=O)CCCCCCCCCCNC(=O)[C@@H](CCSC)n3cc(CCO)nn3)CC2)nc(N2CCN(C(=O)CCCCCCCCCCNC(=O)[C@H]([C@@H](C)CC)n3cc(CCCCN=C(N)N)nn3)CC2)n1	inconclusive: 35.5 µM [inhibitor, single point]	–
O=C(NC1CCN(Cc2ccccc2)CC1)c1cc(S(=O)(=O)N2CCOCC2)ccc1Cl	–	inactive: -8.56%
CCOc1ccccc1NC(=O)Nc1ccc2c(c1)OCO2	–	inactive: -0.258%
Oc1ccc(Br)cc1C1C=C(c2ccc3c(c2)OCO3)NC(c2ccc(F)c(Br)c2)N1 (stereo not drawn)	active: 7.94 µM	–
Cc1ccc(S(=O)(=O)N2CCCC(C(=O)N3CCCc4ccccc43)C2)cc1 (stereo not drawn)	–	inactive: -13.4%
O=C(c1ccc(O)cc1)c1ccc(C(=O)c2ccc(O)cc2)cc1	inconclusive: 11.2 µM [inhibitor, single point]	–
CCOc1ccc(CN2CCC(n3nccc3NC(=O)CCCc3ccccc3)CC2)cc1	inconclusive: 3.16 µM [inhibitor, single point]	–
Cc1cccnc1C(NC(=O)C1CCN(Cc2cn(C)c3ccccc23)CC1)c1ccc(Cl)cc1 (stereo not drawn)	inconclusive: 25.1 µM [inhibitor, single point]	–
CC(=O)NCC1CCCN(Cc2cn(-c3ccccc3F)nc2-c2cc(C)sc2C)C1 (stereo not drawn)	–	inactive: 5.08%
CCn1c(SCC(=O)N/N=C/c2ccc(C)o2)nnc1-c1ccc(C)cc1	inconclusive: 3.55 µM [inhibitor, full curve, poor fit]	–
COc1ccc2c(c1)[nH]c1c(=O)n(CCN(C)C)cnc12	–	inactive: -3.7%
CC(=O)N1CCc2cc(Br)cc(S(=O)(=O)CCC(=O)N3CCN(c4ccc(F)cc4)CC3)c21	inconclusive: 22.4 µM [inhibitor, single point]	–
Cc1ccc(NC(=O)CS(=O)CC(=O)N2CCN(c3ccccc3)CC2)cc1 (stereo not drawn)	inconclusive: 11.2 µM [inhibitor, partial curve, poor fit]	–
O=C(NCCc1ccccc1)c1cnn2c(C(F)F)cc(C3CC3)nc12	inconclusive: 35.5 µM [inhibitor, single point]	–
Cc1c(C(=O)N(Cc2ccccc2F)C2CCS(=O)(=O)C2)oc2ccccc12 (stereo not drawn)	inconclusive: 7.08 µM [inhibitor, partial curve, poor fit]	–
COc1ccc(S(=O)(=O)NCC(c2cccs2)S(=O)(=O)c2ccccc2)cc1OC (stereo not drawn)	inconclusive: 25.1 µM [inhibitor, partial curve, poor fit]	–
C=CC[C@H](CC(=O)N(CCO)Cc1ccccc1)C(=O)N[C@H](COC(=O)[C@@H](CC=C)Cc1ccc(F)cc1)C(C)(C)C	inconclusive: 22.4 µM [inhibitor, single point]	–
C=CCc1cc(C=O)cc(OC)c1OCc1ccc(Cl)cc1	inconclusive: 7.08 µM [inhibitor, full curve, poor fit]	–
